{"source": "PubChem BioAssay AID686978", "about": "(National Center for Advancing Translational Sciences (NCATS), 2013)", "note": "Values joined by “and” are separate entries in the source; they are usually repeats but may differ in a detail not shown here. Identical values can stand only once. Out of some 420,000 compounds screened, about 64,000 (15%) were called active. The shares of active, inactive and inconclusive entries below differ from those in the screen. Calls follow the shape of the dose curve; as a rule, active = well fitted inhibition curve with a large enough effect; inconclusive = small, poorly fitted or top-dose-only effect; inactive = flat fitted curve, though single readings scatter. Potencies of inconclusive entries are left out as doubtful fits. % is scaled to controls: 0 for no effect and ±100 for the full control effect; potency is read from the fitted curve at half-maximal effect; tags tell the direction and shape of the fitted curve.", "data": [{"test": "qHTS for Inhibitors of human tyrosyl-DNA phosphodiesterase 1 (TDP1): qHTS in cells in absence of CPT; also: nearly all actives have a fitted effect of over 55% in size", "conditions": "DT40 Tdp1-/- hTDP1 cells, no CPT, ATP luminescence, 48 h; activity change, negative = growth inhibition: at 46.2 µM (top of the series) unless noted", "method_in_brief": "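Growth kinetics read by CellTiter-Glo luminescence after ≥48 hr at 37 °C. Cells: DT40 Tdp1-/- stably carrying human TDP1, 400 per well, compound exposure in the absence of CPT (DMSO vehicle).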", "values": [{"smiles": "CC(C)C1Nc2ccc(C(=O)NC3CCCCC3)cc2NC1=O", "note": "(stereo not given)", "Potency": "inconclusive [inhibitor, partial curve]"}, {"smiles": "CCCn1nc(NC(=O)c2ccco2)c2cc3ccccc3nc21", "Potency": "active: 14.6 µM"}, {"smiles": "COc1ccc(C2C(C#N)=C(N)Oc3n[nH]c(C)c32)cc1CSc1ccccn1", "note": "(stereo not given)", "Potency": "inconclusive [inhibitor, single point]"}, {"smiles": "CC(=O)c1ccc(OCc2cc(C(=O)N3CCCCCCC3)no2)cc1", "Potency": "active: 4.11 µM"}, {"smiles": "Cn1c(=O)c2c(ncn2CCc2ccccc2)n(C)c1=O", "Potency": "inactive"}, {"smiles": "Cc1[nH]c2ccccc2c1SCCNC(=O)c1ccc(S(=O)(=O)N2CCCC2)cc1", "Potency": "inconclusive [inhibitor, single point]"}, {"smiles": "CCSc1nc(=S)n(CC)c(C)c1C(C)=O", "activity change, negative = growth inhibition": "inconclusive: -35.6% [inhibitor]"}, {"smiles": "O=C(CCCn1nnnc1CN1CCOCC1)N1CCC(c2ccc(F)cc2)C1", "note": "(stereo not given)", "activity change, negative = growth inhibition": "inconclusive: -38.8% [inhibitor]"}, {"smiles": "Cc1ccc(S(=O)(=O)CCC(=O)Nc2ccc(F)cc2)cc1", "Potency": "inactive"}, {"smiles": "C=CCOc1c(Cl)cc(C2NC(=O)NC(C)=C2C(=O)OC)cc1Cl", "note": "(stereo not given)", "Potency": "inconclusive [inhibitor, partial curve]"}, {"smiles": "CC(C)C(NC(=O)/C=C/c1ccc(F)cc1)C(C)C", "Potency": "inconclusive [inhibitor, single point]"}, {"smiles": "COc1ccc(Br)cc1C(=O)NC(=S)Nc1ccc(Cl)c(C(=O)O)c1", "Potency": "inactive"}, {"smiles": "COc1ccccc1-n1cnc2cc(NCc3cccs3)ccc21", "Potency": "active: 0.92 µM"}, {"smiles": "COc1ccc(NC(=O)c2cccc([N+](=O)[O-])c2)cc1", "Potency": "inactive"}, {"smiles": "COc1ccc(CNC(=O)c2c3c(nc4ccccc24)C(=O)N(C2CCCCC2)C3)cc1", "Potency": "active: 14.6 µM"}, {"smiles": "O=C(NCC(c1cccs1)N1CCOCC1)c1cc(-c2ccccn2)nc2ccccc12", "note": "(stereo not given)", "Potency": "inconclusive [inhibitor, single point]"}, {"smiles": "COc1ccc(/C=C/C(=O)C(C)(C)C)cc1OC", "Potency": "inconclusive [inhibitor, single point]"}, {"smiles": "COC(=O)c1ccc(CSc2nc3c([nH]c4ccccc43)c(=O)n2-c2ccc(OC)cc2)o1", "Potency": "active: 18.4 µM"}, {"smiles": "COc1cccc(CNC(=O)c2nn(-c3ccc(C)cc3)c(=O)c3c2c2ccccc2n3C)c1", "Potency": "inconclusive [inhibitor, partial curve]"}, {"smiles": "Cc1cccc(Oc2coc3cc(OC(=O)c4cncc(Br)c4)ccc3c2=O)c1", "activity change, negative = growth inhibition": "inconclusive: -27.4% [inhibitor]"}, {"smiles": "CCOC(=O)c1c(NC(=O)CSc2nnc(C)s2)sc2c1CCC(CC)C2", "note": "(stereo not given)", "Potency": "inconclusive [inhibitor, single point]"}, {"smiles": "Cc1ccc(S(=O)(=O)NC2c3cccc4cccc(c34)C2Sc2nncn2C)cc1", "note": "(stereo not given)", "Potency": "inconclusive [inhibitor, single point]"}, {"smiles": "O=C1OC(c2ccc(F)cc2)=N/C1=C\\C=C/c1ccccc1", "Potency": "inactive"}, {"smiles": "COc1ccccc1Nc1nn2c(=O)c3ccc(C(=O)N4CCCC(C)C4)cc3nc2s1", "note": "(stereo not given)", "Potency": "active: 20.6 µM and active: 23.1 µM"}, {"smiles": "COc1ccc(CN2CCN(C(=O)CCC(=O)Nc3nnc(CC(C)C)s3)CC2)cc1F", "Potency": "active: 4.61 µM"}, {"smiles": "Cc1ccc(-n2nc(C)c3c(C(=O)NCc4ccccc4)cc(C4CC4)nc32)cc1", "Potency": "inactive"}, {"smiles": "COc1ccccc1CNS(=O)(=O)c1ccc2c(c1)NC(=O)CC(=O)N2", "Potency": "inactive"}, {"smiles": "Cc1cc(NC(=O)c2cnn3c(C(F)(F)F)cc(-c4ccc(Br)cc4)nc23)no1", "Potency": "inconclusive [inhibitor, partial curve]"}, {"smiles": "Cc1nc(SCC(=O)Nc2cc(C)on2)c2c(=O)n(C)c(=O)n(C)c2n1", "Potency": "inactive"}, {"smiles": "COc1ccc(/C=N/NC(=O)c2ccn[nH]2)cc1CN1CCOCC1", "Potency": "inactive"}, {"smiles": "Cc1nc2ccccc2n1Cc1ccccc1Br", "Potency": "inconclusive [inhibitor, single point]"}, {"smiles": "CC(C)c1ccc(NC(=O)C2CCCN(S(=O)(=O)c3ccc4c(c3)C(C)(C)C(=O)N4C)C2)cc1", "note": "(stereo not given)", "Potency": "inconclusive [inhibitor, single point]"}, {"smiles": "O=C(c1cc(-c2ccncc2)nc2ccc(Cl)cc12)N1CCN(Cc2ccc3c(c2)OCO3)CC1", "Potency": "active: 23.1 µM"}, {"smiles": "O=C(CCN1C(=O)C2CCCCC2C1=O)N1CCN(S(=O)(=O)c2cccc(F)c2)CC1", "note": "(stereo not given)", "Potency": "inactive"}, {"smiles": "O=C(c1ccc(S(=O)(=O)N2CCCCCC2)cc1)N1CCC(CN2C(=O)c3cccc4cccc(c34)C2=O)CC1", "Potency": "active: 20.6 µM"}, {"smiles": "N/C(=N\\NC(=O)c1cccs1)c1cc2cc(Cl)ccc2oc1=O", "Potency": "inactive"}, {"smiles": "COc1ccc(C)cc1NC(=O)CN1CCN(S(=O)(=O)c2ccc(F)cc2)CC1", "Potency": "inconclusive [inhibitor, single point]"}, {"smiles": "Cc1ccc(N2CC(C(=O)N3CCN(Cc4ccc5c(c4)OCO5)CC3)CC2=O)cc1", "note": "(stereo not given)", "Potency": "inconclusive [inhibitor, partial curve]"}, {"smiles": "CC(=O)N1N=C(c2ccc(C)c([N+](=O)[O-])c2)OC1(C)C", "Potency": "inconclusive [inhibitor, single point]"}, {"smiles": "O=c1[nH]c(Nc2ccccc2Cl)cc2ccccc12", "Potency": "inconclusive [inhibitor, single point]"}, {"smiles": "CN(C)c1ccnc(-n2cccc2/C=N/OCc2ccc(F)cc2Cl)c1C#N", "Potency": "inconclusive [inhibitor, partial curve, poor fit]"}, {"smiles": "Cc1ccc(S(=O)(=O)NCc2nc(-c3cccc(C)c3)no2)cc1", "Potency": "inconclusive [inhibitor, single point]"}, {"smiles": "COc1ccccc1C1Nc2ccccc2NC2=C1C(=O)CC(C)(C)C2", "note": "(stereo not given)", "Potency": "inactive"}, {"smiles": "FC(F)(F)c1cccc(Cn2nnnc2-c2ccc(Cl)cc2)c1", "Potency": "inconclusive [inhibitor, partial curve]"}, {"smiles": "Cc1cccc(NC(=S)NNC(=O)c2ccc(O)cc2O)c1C", "Potency": "inactive"}, {"smiles": "COC(=O)c1cccc(-c2ccc(/C=N/N3C(=O)C4C5C=CC(C6CC56)C4C3=O)o2)c1", "note": "(stereo not given)", "Potency": "inactive"}, {"smiles": "CC[C@]12c3[nH]c4cc(CCC(=O)N(C)C)ccc4c3CCN1C(=O)[C@@H](CC(=O)NC/C=C(\\C)CCC=C(C)C)C[C@@H]2C(=O)N1CCN(C(=O)c2ccco2)CC1", "Potency": "active: 5.8 µM"}, {"smiles": "CCn1cc(C(=O)NCc2ccccc2Cl)c(=O)c2cc(S(=O)(=O)N3CCc4ccccc4C3)ccc21", "Potency": "inconclusive [inhibitor, full curve]"}, {"smiles": "Cc1ccc(C(=O)N2CCOCC2)c(F)c1F", "Potency": "inactive"}, {"smiles": "COc1ccccc1CNC(=O)CCCn1c(=O)c2ccccc2n(CC(=O)Nc2c(C)cc(C)cc2C)c1=O", "Potency": "inconclusive [inhibitor, partial curve]"}, {"smiles": "O=C(CSc1nc(=O)n(CCN2CCOCC2)c2c1CCC2)Nc1ccccc1", "Potency": "inactive"}, {"smiles": "CCN(CC)c1ccc2c(C)c(-c3ccc(N)cc3)c(=O)oc2c1", "Potency": "inconclusive [inhibitor, single point]"}, {"smiles": "COCCCNC(=O)c1ccc2c(c1)N(Cc1ccccc1)C(=O)c1ccccc1S2", "Potency": "inactive"}, {"smiles": "Cn1ncc2c(O/N=C(\\N)c3ccc(C(F)(F)F)cc3)ncnc21", "Potency": "active: 5.17 µM"}, {"smiles": "CC(NC(=S)Nc1ccc(F)cc1)c1ccccc1", "note": "(stereo not given)", "Potency": "inconclusive [inhibitor, single point]"}, {"smiles": "Cc1ccc(-c2nnc(SCC(=O)N/N=C/c3cccs3)n2-c2ccc(C)cc2)cc1", "Potency": "active: 14.6 µM"}, {"smiles": "CCOC(=O)c1sc(NC(=O)c2ccncc2)c(C#N)c1C", "Potency": "active: 5.17 µM"}, {"smiles": "CN1CCc2c(sc3c2C(=O)NC(c2cn(Cc4ccccc4)c4ccccc24)N3)C1", "note": "(stereo not given)", "Potency": "active: 23.1 µM"}, {"smiles": "CC(C)(C)C1=CC(=O)C(N2CCOCC2)=CC1=O", "Potency": "active: 20.6 µM"}, {"smiles": "CCC1Oc2ccccc2N(CC(=O)NCCC2=CCCCC2)C1=O", "note": "(stereo not given)", "Potency": "active: 25.9 µM"}, {"smiles": "CC(=O)OCC1OC(n2cc(F)c(=O)[nH]c2=O)C(OC(C)=O)C1OC(C)=O", "note": "(stereo not given)", "Potency": "active: 5.17 µM"}, {"smiles": "O=C(O)c1ccc(N/N=C2/CCCc3ccccc32)cc1", "Potency": "inactive"}, {"smiles": "CN(C)CCNC(=O)c1nn(C)c2c1CCc1ccccc1-2", "Potency": "inconclusive [inhibitor, single point]"}, {"smiles": "CSc1nc(N)c(C(=O)NC2CCCCC2)s1", "activity change, negative = growth inhibition": "inconclusive: -31.2% [inhibitor]"}, {"smiles": "COc1ccc(OC)c2cc3ccccc3cc12", "Potency": "active: 0.92 µM"}, {"smiles": "Cc1ccc2c(c1)N(C(=O)CCC(=O)NCc1ccccc1Cl)CC(C)O2", "note": "(stereo not given)", "Potency": "inconclusive [inhibitor, single point]"}, {"smiles": "Cc1c(C(=O)Oc2cccc3cccnc23)cccc1[N+](=O)[O-]", "Potency": "inconclusive [inhibitor, single point]"}, {"smiles": "Cc1nc2scc(C)n2c(=O)c1S(=O)(=O)NC(C)c1ccccc1", "note": "(stereo not given)", "Potency": "inconclusive [inhibitor, single point]"}, {"smiles": "Cc1cccc(N2CCN(C(=O)c3cc4cc(F)ccc4[nH]3)CC2)c1C", "Potency": "inconclusive [inhibitor, partial curve]"}, {"smiles": "NC(=O)CN1C(=O)NC(c2ccccc2)(c2ccccc2)C1=O", "Potency": "inactive"}, {"smiles": "O=C(CCCc1ccccc1)NCCc1ccc(F)cc1", "Potency": "inconclusive [inhibitor, partial curve]"}, {"smiles": "O=C(NC(c1ccccc1)c1ccc2ccccc2n1)C1CCN(CCOc2ccc(Cl)cc2)CC1", "note": "(stereo not given)", "Potency": "active: 16.4 µM"}, {"smiles": "O=C(Nc1cc(C(F)(F)F)ccc1Cl)c1cc(-c2ccc3c(c2)OCCO3)on1", "Potency": "inconclusive [inhibitor, partial curve]"}, {"smiles": "Cn1cc(C(=O)C(=O)N2CCc3ccccc32)c2ccccc21", "Potency": "inactive"}, {"smiles": "COc1cccc(N2CCN(C(=O)c3cc4c(s3)CCCCC4)CC2)c1", "Potency": "inconclusive [inhibitor, single point]"}]}]}
